Whole data set: some 33,000 sequences, median “E-score (-0.5 to 0.5)” near -0.016, cut for the highest 2% near 0.32. The list shows a part of the results.

In the test the target is T1, Stp1 (UniProt B3LFK1).
T1 sequence: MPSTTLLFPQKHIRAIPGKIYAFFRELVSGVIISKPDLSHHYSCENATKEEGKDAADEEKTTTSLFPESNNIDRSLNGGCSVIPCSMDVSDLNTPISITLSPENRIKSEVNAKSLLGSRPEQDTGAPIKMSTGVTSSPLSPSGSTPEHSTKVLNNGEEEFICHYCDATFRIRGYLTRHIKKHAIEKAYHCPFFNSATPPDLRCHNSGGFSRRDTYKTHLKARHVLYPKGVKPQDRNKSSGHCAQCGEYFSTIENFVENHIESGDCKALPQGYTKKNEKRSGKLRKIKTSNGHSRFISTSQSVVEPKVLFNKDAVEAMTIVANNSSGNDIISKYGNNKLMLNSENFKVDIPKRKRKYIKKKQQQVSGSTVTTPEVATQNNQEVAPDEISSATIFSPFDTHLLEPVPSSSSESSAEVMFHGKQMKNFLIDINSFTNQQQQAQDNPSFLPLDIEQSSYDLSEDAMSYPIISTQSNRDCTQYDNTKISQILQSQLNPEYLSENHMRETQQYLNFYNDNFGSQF
As to the kind of experiment: PBM E-score (8-mer binding enrichment) (E-score (-0.5 to 0.5)); higher = stronger / more preferred TF binding; most listed sequences are background and not binding sites. The conditions noted are these: protein concentration: 200 nM; construct: GST-full length. The procedure, abridged:
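Universal all-10-mer Agilent arrays, fresh or stripped once, were converted to double-stranded form by primer extension. GST-tagged yeast transcription factors from PURExpress in vitro transcription/translation, full-length or DNA-binding domain only, were applied at about 100-200 nM and detected with fluorescent anti-GST. After masliner normalisation, the Universal PBM Analysis Suite scored each ungapped eight-base word together with its reverse complement by E-score.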
As for CGTACCGC, the “PBM E-score” value was found to be 0.168.

With AACCGACA, the “PBM E-score” value was 0.123. With CAATTTGG the figure was 0.00121; with ACACGGGA, 0.148.

As to GGCCTTCA, the “PBM E-score” value was -0.0707.

Turning to AAATGGAG, the “PBM E-score” value turned out to be 0.0643. With CGGAATCA the figure was 0.0443. As for CACGTATG, the “PBM E-score” value came out at 0.109. Next, CAGGCAAC: -0.258; CATAACTC: -0.187; CGTGTCGA: 0.107. As for GCAATAAA, the “PBM E-score” value was 0.202. With AATATACG the figure was 0.017; with AGCCTACC, -0.142; with AACCTTCA, -0.187. As for AAGCATAT, the “PBM E-score” value is -0.0129. On to ACCGGACA, for which the “PBM E-score” value is -0.288.

Regarding CGGCTAGA, the “PBM E-score” value was 0.193. For the sequence ACGTGGAC, the “PBM E-score” value was found to be 0.159.

On to CAAAGCCC, for which the “PBM E-score” value was -0.0858. Next, AGGAGTTG: 0.0218.

For the sequence GCCCCAGA, the “PBM E-score” value is -0.136. Take CCACACCC: the “PBM E-score” value is -0.0998. Next, CATGATCG: -0.0196; CAGGCTAC: -0.18.

Turning to CGCATATC, the “PBM E-score” value came out at 0.11. CTGGTCAC: the “PBM E-score” value was -0.159. With TACTCCCA the figure was 0.0254; with AACAAGGT, 0.00428; with ATAAATTC, 0.189. With CCGCACTC the figure was 0.0993; with AAGTCTAC, -0.287; with CAACAAGA, 0.014.

As for AACTCCAA, the “PBM E-score” value was -0.0303. Next, CCACCTAC: -0.183. Regarding CATAAAAG, the “PBM E-score” value worked out at 0.0311.

Regarding AGGACCAA, the “PBM E-score” value is -0.0753.

As for AGATAGGA, the “PBM E-score” value was -0.0603. Turning to ACATCGAA, the “PBM E-score” value is 0.144. Turning to AGGAGTAG, the “PBM E-score” value was 0.0438.

Consider CGCCCCAA, for which the “PBM E-score” value worked out at 0.202. For GCTGTCCC, the “PBM E-score” value is -0.0405. For the sequence CGTTTCTC, the “PBM E-score” value was -0.17. With ACTGGCTA the figure was -0.0563; with CTCAGTAC, -0.188. As to AGCGTGCC, the “PBM E-score” value came out at 0.126.

For GAGTTCCA, the “PBM E-score” value is -0.157.

Regarding CACGTAAA, the “PBM E-score” value was 0.0116. With CCTCTGTC the figure was -0.18; with ACCATAAC, -0.0279.

For the sequence AAAAGGAT, the “PBM E-score” value was 0.0988. Next, GACGTCAC: -0.189; ACTTACAT: 0.0173. As for CCCGCTAC, the “PBM E-score” value was -0.0384. Turning to AGAAACAC, the “PBM E-score” value amounted to 0.0654. In the case of ACTCTTTG, the “PBM E-score” value was -0.0491. With CCAACCAC, the “PBM E-score” value was -0.0157. Take AACTCACA: the “PBM E-score” value turned out to be 0.0429.

On to TCGGGCCA, for which the “PBM E-score” value was -0.23. Consider CTAAGAAA, for which the “PBM E-score” value was found to be 0.0483.

For ACCCTTAA, the “PBM E-score” value is -0.207. Next, ACTACCCT: -0.289; GACTCCAC: -0.371; AGCTGCAC: -0.111. With ACCAACAC, the “PBM E-score” value was determined as 0.0757. In the case of CCGTCCAA, the “PBM E-score” value was 0.0723. Regarding ACGACCGT, the “PBM E-score” value is -0.11. In the case of GCAGGCAC, the “PBM E-score” value is 0.0604. For AGGATCGC, the “PBM E-score” value is -0.145. With CGAGTACA the figure was -0.138. For AGCAGCAA, the “PBM E-score” value is -0.0165.

Take ACAGGGGT: the “PBM E-score” value was -0.338. Next, CGGAGTGC: 0.117. Next, AGCGTTTG: -0.194; GGGCGGGA: -0.11; ACATTTCT: 0.0896. AGGGCAAC: the “PBM E-score” value turned out to be 0.156. Next, CACTCAAG: -0.183; ATCGCGGC: 0.238; CCATGCAG: -0.0466. Turning to AACCGGCA, the “PBM E-score” value is -0.0148. As to CGAACGCA, the “PBM E-score” value is 0.249. In the case of GCGCCTCA, the “PBM E-score” value worked out at 0.401. Consider CACATAGG, for which the “PBM E-score” value is -0.116. With CAGGTTGA, the “PBM E-score” value was -0.216. For CCTCCATC, the “PBM E-score” value is -0.349.

Source of the values: the supplement of paper PMC3334620.
